The structures appear in SMILES notation. Out of some 50,000 compounds screened, about 800 (1.6%) showed an effect of 50% or more. The list shows a part of the results.

For this experiment, the target named is Bcl-2-like protein 10 (Homo sapiens) (UniProt Q9HD36). Description: TR3 peptide-Bcl-B binding displacers, biochemical primary FP assay, phenotype converters (AID 1240).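 Further: 0% = Bcl-B with tracer peptide and DMSO and 100% = tracer peptide lacking Bcl-B.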 The settings on record: GST-Bcl-B / FITC-TR3 peptide fluorescence polarization; stronger effect = higher value; compound at 3.75 mg/L. In general terms: In fluorescence polarisation assays a small probe gives low polarisation when free and higher when bound to something large.
Sequence of UniProt Q9HD36 (Q9HD36 whole entry, looked up): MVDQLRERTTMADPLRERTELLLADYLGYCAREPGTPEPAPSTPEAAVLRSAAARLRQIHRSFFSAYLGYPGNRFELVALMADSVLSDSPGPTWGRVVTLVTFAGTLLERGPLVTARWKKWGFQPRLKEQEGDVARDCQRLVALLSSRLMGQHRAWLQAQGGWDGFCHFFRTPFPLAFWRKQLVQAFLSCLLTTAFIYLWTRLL
For the compound `CCOC(=O)c1ccc(NS(=O)C23CC4CC(CC(C4)C2)C3)cc1` (stereo not drawn), the displacement worked out at 18.5%.
Consider `COC(=O)Cn1c2ccccc2n2nc(C)nc12`, for which the displacement is -1.7%.
For `COc1ccc(OC)c(C2/C(=C(\O)c3ccccc3)C(=O)C(=O)N2Cc2cccnc2)c1` (stereo not drawn) the value was 7.4%.
Turning to `Cc1ccc(C(=O)NCC2CCCO2)cc1[N+](=O)[O-]` (stereo not drawn), the displacement was -10%.
`O=C1N=c2ccc(Cl)cc2=C1c1sc(=S)n(Cc2ccccc2)c1O`: the displacement is -17.4%.
Consider `O=C1N=C(N2CCCC2)S/C1=C\c1cccc(O)c1`, for which the displacement is -15.6%.
Take `O=C(O)c1ccc2c(c1)C(=O)N(c1cccc(C(=O)Nc3cccc(Cl)c3)c1)C2=O`: the displacement worked out at 4.3%.
For the compound `CS(=O)(=O)N1CCN(Cc2cccc3ccccc23)CC1`, the displacement turned out to be 12.7%.
As to `Cc1[nH]nc2c1C(C(C)c1ccccc1)C(C#N)=C(N)O2` (stereo not drawn), the displacement was -8%.
`Cc1ccccc1OCC(=O)Nc1ccc2oc(-c3ccc(F)cc3Cl)nc2c1`: the displacement turned out to be 2%.
In the case of `O=S(=O)(c1ccccc1)N1CCN(c2ccccn2)CC1`, the displacement is -3.9%.
`Cc1ccc(S(=O)(=O)N2CCN(Cc3ccc(F)cc3)CC2)cc1`: the displacement worked out at 10%.
For `Cc1ccc(NC(=O)CN(c2ccc(Oc3ccccc3)cc2)S(C)(=O)=O)cc1`, the displacement came out at 5.1%.
Turning to `CCN(CC)c1ccc(C(=O)Nc2ccc(Cl)cc2Cl)cc1`, the displacement worked out at 12.2%.
As to `Cc1ccc(C(c2ccc(C)o2)c2cc(Br)cc([N+](=O)[O-])c2O)o1`, the displacement was found to be 9.3%.
Then `COc1ccc(NC(=O)CN(c2cc(C)cc(C)c2)S(=O)(=O)c2ccccc2)c(OC)c1`, with -3%; and `Cc1nc2ccccc2n1S(=O)(=O)c1cc([N+](=O)[O-])ccc1Cl`, with 18.9%; and `COc1ccc(C2Nc3ccccc3NC3=C2C(=O)CC(C)(C)C3)cc1COc1ccc(F)cc1` (stereo not drawn), with -2.5%.
On to `Cn1c(/C=C/c2ccc([N+](=O)[O-])cc2)nc2ccccc2c1=O`, for which the displacement was determined as 2.9%.
Then `Cc1nn(CC(O)Cn2c3ccc(Cl)cc3c3cc(Cl)ccc32)c(C)c1Br` (stereo not drawn), with -3%.
In the case of `Cc1ccc(Cl)cc1NC(=O)c1c(-c2ccccc2)noc1C`, the displacement was -7.7%.
On to `CCOC(=O)c1c(NC(=O)c2ccc(F)cc2)sc(C(=O)Nc2ccccc2OCC)c1C`, for which the displacement was determined as 1.8%.
As for `COC(=O)Nc1sc(C)c(C)c1C(N)=O`, the displacement is -0.7%.
With `CC1=NC(c2ccccc2)(c2ccccc2)c2ccccc2O1`, the displacement came out at 6.5%.
As to `O=C(O)COc1ccc(-c2ccccc2)cc1`, the displacement is 13.7%.
As for `Nc1cccc2c1C(=O)c1c(N)cccc1C2=O`, the displacement is -4.2%.
Then `Cc1cc(NC(=O)c2cc3n(n2)C(C(F)(F)F)CC(c2ccc(Cl)c(Cl)c2)N3)no1` (stereo not drawn), with 8.1%.
With `COc1ccc(Cl)cc1NC(=O)c1ccc(C(=O)Nc2cc(Cl)ccc2OC)cc1`, the displacement was -7.2%.
Turning to `CS(=O)(=O)c1ccc2nc(NC(=O)COc3ccc(Cl)cc3Cl)sc2c1`, the displacement stood at 7.1%.
As for `Cc1cc(C)c2oc(-c3ccc(NS(=O)(=O)c4ccccc4)cc3)nc2c1`, the displacement is -1.3%.
As for `O=C(CSc1ccccn1)Nc1nc2ccccc2s1`, the displacement is 1%.
As for `COc1ccc(C(=O)Nc2ccc(NC(=O)c3ccco3)c(C)c2)cc1OC`, the displacement turned out to be 11.1%.
For `COc1ccc(/C=C/C(=O)Nc2ccc([N+](=O)[O-])cc2OC)cc1` the value was -6%.

The values are drawn from PubChem BioAssay AID1240 (Sanford-Burnham Center for Chemical Genomics, 2008).
